Here are results for 4 molecules from EP4681729A1.

B1: A17h1_hIgG4 (Fc fusion)
chain: EVQLQESGGGLVQPGGSLRLSCTASGLTFSDYSMSWYRQAPGKGRELVAIISGSGVIAHYVDSVKGRFTISRDNSKNTVYLQMRSLTPEDRAVYYCRAVSDWDDYWGQGTQVTVSS[gap - human IgG4 Fc with S228P (EU numbers)]
B2: A17m09_hIgG4 (Fc fusion)
chain: B1 chain with A58T, S75A, D103E
B3: A17m0901_hIgG4 (Fc fusion)
VHH-Fc: B1 chain with Q5V, T23A, L27F, A58T, S75A, V79L, T87R, P88A, R91T, D103E
B4: A17m0902_hIgG4 (Fc fusion)
VHH-Fc: B1 chain with Q5V, T23A, A58T, S75A, V79L, T87R, P88A, R91T, D103E

Numbering of substitutions follows the chain as printed.

The experiment deals with cynomolgus monkey PD-1 antigen protein (Sino Biological, 90311-C08H) (cynomolgus monkey) (UniProt B0LAJ3). As to the kind of experiment: SPR (Biacore 8k), antibody captured by anti-human IgG (Fc), PD-1 as analyte. For orientation: Surface plasmon resonance follows binding to a sensor surface in real time, without labels.
Sequence of UniProt B0LAJ3 (B0LAJ3 entry or part of it C08H C08H limits assumed, form in doubt): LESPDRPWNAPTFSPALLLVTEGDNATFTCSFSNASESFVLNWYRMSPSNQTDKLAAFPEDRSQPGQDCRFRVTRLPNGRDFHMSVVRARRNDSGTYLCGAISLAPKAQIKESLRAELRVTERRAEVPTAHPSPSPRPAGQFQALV
B1 yielded an equilibrium dissociation constant (Kd) of 1.82 nM, a koff of 0.000807 s⁻¹ and a kon of 444000 M⁻¹ s⁻¹.
The corresponding values for B2 are 1.75 nM, 0.000843 s⁻¹ and 481000 M⁻¹ s⁻¹.
The corresponding values for B3 are 3.32 nM, 0.00113 s⁻¹ and 340000 M⁻¹ s⁻¹.
Regarding B4, the Kd was determined as 3.28 nM, the koff was 0.00108 s⁻¹ and the kon turned out to be 328000 M⁻¹ s⁻¹.

In general, Kd refers to the concentration at which binding is half-saturated. The term koff denotes the rate constant with which the complex falls apart. Usually kon stands for the rate constant with which the complex forms.
